Holding throughout (assay): pull-down; protein A-tagged Nem1 (WT or variant) isolated by IgG-Sepharose affinity chromatography from cell extracts (3 mg protein) of nem1Δ spo7Δ pah1Δ (GHY85) cells co-overexpressing Spo7, at 4 °C; Spo7 in the affinity-purified Nem1 preparation scored by Western blot with anti-Spo7; loading normalized to the elution volume of purified Nem1-PtA
In general terms: In western blotting, separated proteins are transferred to a membrane and probed.

Assay [1] concerns the target T1, protein A-tagged Nem1 Δ(251–413) (S. cerevisiae) (UniProt P38757).
T1 sequence: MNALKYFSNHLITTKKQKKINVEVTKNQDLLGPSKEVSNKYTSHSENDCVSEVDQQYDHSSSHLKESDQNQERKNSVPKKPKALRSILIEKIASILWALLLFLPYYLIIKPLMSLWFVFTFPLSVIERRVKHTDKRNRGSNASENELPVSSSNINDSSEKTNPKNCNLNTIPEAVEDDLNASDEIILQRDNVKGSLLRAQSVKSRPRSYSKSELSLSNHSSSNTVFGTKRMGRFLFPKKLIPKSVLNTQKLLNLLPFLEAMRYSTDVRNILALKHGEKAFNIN

Assay [2] has as its target T2, protein A-tagged Nem1 Δ(414–446) (S. cerevisiae, UniProt P38757 1-413).
T2 sequence (looked up): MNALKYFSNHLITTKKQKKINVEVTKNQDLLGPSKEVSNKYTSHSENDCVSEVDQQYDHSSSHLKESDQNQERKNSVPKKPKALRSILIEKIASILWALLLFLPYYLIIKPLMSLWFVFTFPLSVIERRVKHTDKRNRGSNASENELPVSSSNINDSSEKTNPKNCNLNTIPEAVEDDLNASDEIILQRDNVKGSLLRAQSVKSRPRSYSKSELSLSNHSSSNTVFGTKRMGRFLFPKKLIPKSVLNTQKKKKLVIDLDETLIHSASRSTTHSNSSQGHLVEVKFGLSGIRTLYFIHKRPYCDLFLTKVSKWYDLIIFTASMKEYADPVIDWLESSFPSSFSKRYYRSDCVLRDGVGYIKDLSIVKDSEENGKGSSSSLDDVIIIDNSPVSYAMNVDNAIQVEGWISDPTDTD

Assay [3] has as its target T3, protein A-tagged Nem1 Δ(251–446) (S. cerevisiae) (UniProt P38757).
T3 sequence: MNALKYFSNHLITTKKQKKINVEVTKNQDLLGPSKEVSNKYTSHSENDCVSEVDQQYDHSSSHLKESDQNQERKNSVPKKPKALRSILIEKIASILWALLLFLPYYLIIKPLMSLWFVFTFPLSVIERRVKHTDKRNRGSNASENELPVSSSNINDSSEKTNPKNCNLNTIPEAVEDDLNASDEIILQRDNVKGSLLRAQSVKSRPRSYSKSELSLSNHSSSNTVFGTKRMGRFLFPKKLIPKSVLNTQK

For a further assay, the target named is T4, protein A-tagged Nem1 8A (S. cerevisiae, UniProt P38757 1-446, L414 A | L415 A | L417 A | L418 A | L421 A | V430 A | L434 A | L436 A).
T4 sequence (looked up): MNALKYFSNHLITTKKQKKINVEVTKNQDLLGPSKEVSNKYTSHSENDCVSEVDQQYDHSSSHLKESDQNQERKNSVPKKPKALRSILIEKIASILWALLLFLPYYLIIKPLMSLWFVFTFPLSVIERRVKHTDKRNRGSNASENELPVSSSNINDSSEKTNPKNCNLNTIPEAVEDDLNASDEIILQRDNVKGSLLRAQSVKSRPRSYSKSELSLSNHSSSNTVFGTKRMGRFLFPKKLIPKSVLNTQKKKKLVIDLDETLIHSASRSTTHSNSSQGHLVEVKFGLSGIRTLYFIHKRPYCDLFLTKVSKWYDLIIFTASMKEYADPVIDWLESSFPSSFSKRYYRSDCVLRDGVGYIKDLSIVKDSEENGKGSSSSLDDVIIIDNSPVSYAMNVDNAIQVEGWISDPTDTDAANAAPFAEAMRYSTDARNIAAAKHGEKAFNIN

Assay [4] has as its target T5, protein A-tagged Nem1 (WT) (S. cerevisiae) (UniProt P38757).
T5 sequence: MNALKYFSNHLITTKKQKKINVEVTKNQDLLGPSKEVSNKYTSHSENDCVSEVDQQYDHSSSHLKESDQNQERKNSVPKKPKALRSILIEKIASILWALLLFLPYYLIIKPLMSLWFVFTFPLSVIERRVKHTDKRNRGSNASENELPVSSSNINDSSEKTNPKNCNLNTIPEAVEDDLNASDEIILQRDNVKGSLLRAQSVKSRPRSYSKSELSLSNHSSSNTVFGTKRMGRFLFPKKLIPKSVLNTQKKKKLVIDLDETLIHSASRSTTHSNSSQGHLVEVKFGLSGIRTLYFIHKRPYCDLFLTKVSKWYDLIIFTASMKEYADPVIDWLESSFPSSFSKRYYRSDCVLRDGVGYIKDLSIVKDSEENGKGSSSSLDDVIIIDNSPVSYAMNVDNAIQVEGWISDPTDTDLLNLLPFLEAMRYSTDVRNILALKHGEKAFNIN

The target in another assay is T6, protein A-tagged Nem1 8R (S. cerevisiae, UniProt P38757 1-446, L414 R | L415 R | L417 R | L418 R | L421 R | V430 R | L434 R | L436 R).
T6 sequence (looked up): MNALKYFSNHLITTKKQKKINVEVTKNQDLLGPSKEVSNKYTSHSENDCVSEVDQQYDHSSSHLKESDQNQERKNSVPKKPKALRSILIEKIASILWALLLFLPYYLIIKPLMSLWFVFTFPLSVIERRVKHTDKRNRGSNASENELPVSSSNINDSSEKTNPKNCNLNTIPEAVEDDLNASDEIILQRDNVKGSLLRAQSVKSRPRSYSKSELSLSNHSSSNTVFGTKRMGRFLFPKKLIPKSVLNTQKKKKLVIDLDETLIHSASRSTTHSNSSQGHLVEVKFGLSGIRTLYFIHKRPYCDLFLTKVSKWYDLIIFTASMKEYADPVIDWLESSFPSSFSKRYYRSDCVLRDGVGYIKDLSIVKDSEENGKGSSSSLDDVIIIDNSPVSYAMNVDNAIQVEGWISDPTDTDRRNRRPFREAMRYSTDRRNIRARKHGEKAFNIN

The values below come from PMC11665475, “The CTR hydrophobic residues of Nem1 catalytic subunit are required to form a protein phosphatase complex with Spo7 to activate yeast Pah1 PA phosphatase” (The Journal of Biological Chemistry, 2024).

No constants are given. Whether binding was seen depends on the method and setting. Binding seen in cells or lysates may run through a third protein. Some binding calls cover weakened binding; strength is not graded here. Where a sequence is shown, tags or fusion partners need not be part of it.

B1: Spo7 (natural protein, S. cerevisiae, UniProt P18410 1-259, looked up)
chain: MEPESIGDVGNHAQDDSASIVSGPRRRSTSKTSSAKNIRNSSNISPASMIFRNLLILEDDLRRQAHEQKILKWQFTLFLASMAGVGAFTFYELYFTSDYVKGLHRVILQFTLSFISITVVLFHISGQYRRTIVIPRRFFTSTNKGIRQFNVKLVKVQSTWDEKYTDSVRFVSRTIAYCNIYCLKKFLWLKDDNAIVKFWKSVTIQSQPRIGAVDVKLVLNPRAFSAEIREGWEIYRDEFWAREGARRRKQAHELRPKSE
Regarding B1, the binding entry is recorded as “no binding” in assay [1]; “no binding” in assay [2]; “no binding” in assay [3]; “no binding” with protein A-tagged Nem1 8A; “binds” in assay [4]; “no binding” with protein A-tagged Nem1 8R.
